Paper PMC10726135
This is one part of the list. At the low end of the ranking, values are background and their order means little. Measured with an extract: partners may take part in the binding.

Each sequence was assayed against T1, HNF4alpha8 (COS-7 nuclear extract) (UniProt P41235-5) (assay: protein-binding microarray). Conditions: COS-7 nuclear extract on double-stranded Agilent 4x180k PBM; binding buffer, salt, pH and temperature not given; high values mean tight binding; double strand, one strand shown; sequences stand for … in …GCCTAGGGAGATTAGAGTATCGGTCGA.
T1 sequence: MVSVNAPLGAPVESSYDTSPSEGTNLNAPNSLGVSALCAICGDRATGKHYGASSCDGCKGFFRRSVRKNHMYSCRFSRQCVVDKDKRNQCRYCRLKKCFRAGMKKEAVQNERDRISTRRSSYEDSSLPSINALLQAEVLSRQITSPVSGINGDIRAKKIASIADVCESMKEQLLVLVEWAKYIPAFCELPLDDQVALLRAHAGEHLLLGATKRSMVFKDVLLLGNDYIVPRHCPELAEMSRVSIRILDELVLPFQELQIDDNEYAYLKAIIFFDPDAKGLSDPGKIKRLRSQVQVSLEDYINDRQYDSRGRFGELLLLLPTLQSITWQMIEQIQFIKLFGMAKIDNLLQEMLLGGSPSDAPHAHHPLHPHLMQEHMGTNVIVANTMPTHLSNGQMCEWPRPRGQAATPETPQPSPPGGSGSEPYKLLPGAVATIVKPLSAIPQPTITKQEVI
Sequence CCTACTCATTCATATCACCTAGGTGGAATC has a binding signal (log2 normalized intensity) of 1.77.
With CTGAACTTTAAACTGGTGTGTCTTGCCTTT the binding signal (log2 normalized intensity) was 2.42.
GGGCCTCCATATTTGGAAGTAAGAACCCCA showed a binding signal (log2 normalized intensity) of 2.17.
With AAAGAGCCATGGACTGCTGACCTTTGAACC the binding signal (log2 normalized intensity) was 9.59.
Work on GTCATTGATGAAACTCCTTCCCTTTCATGT yielded a binding signal (log2 normalized intensity) of 1.43.
In the case of AATCAAACTGAACTTTGAAACAAGCCCATC, the binding signal (log2 normalized intensity) is reported as 3.87.
ACGCAAGCGAGTAAGGCCCGTGAGATTGAA was tested, and the binding signal (log2 normalized intensity) was -0.921.
With GGAGGTTATCTTGGGGCTGATGTCTTTCTG the binding signal (log2 normalized intensity) was 1.68.
For ACCGGCAGAGAGAAGCCACTGCGACCTTTG, the binding signal (log2 normalized intensity) was 5.59.
For AGTTGGTTGGAGCTATGGGCAGAAAAAAAT, the binding signal (log2 normalized intensity) was -0.989.
TAAAGTCCGAACCTGCCAAAGAAGAAAACA showed a binding signal (log2 normalized intensity) of -1.36.
In the case of CTTCCACCAGGGCTAGACCCGTCAGCCCTG, the binding signal (log2 normalized intensity) is reported as -1.12.
Work on AGAGCATGAGAACTTCTTCCAATGAAAGGT yielded a binding signal (log2 normalized intensity) of -1.13.
With CCTTTGAAGTGGGGGTGAGTCAGTCCCCAG the binding signal (log2 normalized intensity) was 1.57.
ACGGTGCAGGGAGGATATCCCTCCGCCTCC gave a binding signal (log2 normalized intensity) of -1.26.
Work on GGCTGGTTTAACTGACCCAGGGAGAAAGGT yielded a binding signal (log2 normalized intensity) of 0.159.
With CAAAGACTAATGCATTCCCAGCAAGTGAAG the binding signal (log2 normalized intensity) was -1.37.
For GATTGTCACAAGACTGTTATCACAGCTGGC, the binding signal (log2 normalized intensity) was -1.38.
In the case of GTCTAAGCTAGTCATAGCTGGGTTTCCAGC, the binding signal (log2 normalized intensity) is reported as -1.32.
For GCCGAGAGCGGCTCGTTGGTCTAGGGGTAT, the binding signal (log2 normalized intensity) was -1.05.
AGGCTCCCCTAATCCCTGTGACATTTTCAG showed a binding signal (log2 normalized intensity) of 1.09.
In the case of GATAATCACCCGATAAGCTGACCCCAAAAC, the binding signal (log2 normalized intensity) is reported as 5.31.
With TATTTGTTTTCTGTCTTCATCCTGAGAGGG the binding signal (log2 normalized intensity) was 1.54.
With AGACAACCTTTGTTCACAGTGACGTTCTGC the binding signal (log2 normalized intensity) was 1.84.
TGCAAGGAAATGGATTGCCTCCTAAGGCCT was tested, and the binding signal (log2 normalized intensity) was -1.35.
With TAAACAGAAGAAAGGGGCTAGGGCAAAGAT the binding signal (log2 normalized intensity) was -1.24.
Work on GATCAAAGTTCATTGTAGCCTCAAATTCCT yielded a binding signal (log2 normalized intensity) of 3.94.
ATAGCGCCCACACTGCCCATCCCCACTGAA gave a binding signal (log2 normalized intensity) of 3.12.
With AGCAGGCAGAGGTCAATGTCCACACCCCAG the binding signal (log2 normalized intensity) was 5.16.
TAAAACACAAATCTCCACAAACATACAACC gave a binding signal (log2 normalized intensity) of -1.46.
TCACGTACCGGCTAGACAAACAGCTTCTGT was tested, and the binding signal (log2 normalized intensity) was -1.26.
CTGCACCTTGAAACCCCTCCTTACAGTGCC showed a binding signal (log2 normalized intensity) of 2.43.
AGCAGGTGACCTTCGATCACCTCAAGAAAG was tested, and the binding signal (log2 normalized intensity) was 4.91.
CTCCTGGATTGCAGGTAAACACAGTGATGG gave a binding signal (log2 normalized intensity) of 0.15.
Work on AAGTTTGAAAATGCCTTGAACTATTCACTG yielded a binding signal (log2 normalized intensity) of -1.32.
AGGGGGAGGAGAGTACTGTCTCTTATCAGC showed a binding signal (log2 normalized intensity) of -1.2.
With CCCACGGTCAGGACTTGATGATTGACACTA the binding signal (log2 normalized intensity) was -0.428.
Sequence CTGGGTGAGCCGCACACCGACTTGCACCAG has a binding signal (log2 normalized intensity) of -1.26.
ACTGTAAACCAGCAGTATCTTTGTGTCACC showed a binding signal (log2 normalized intensity) of 0.555.
With AAGTCTTAGCTCATTTCAGCCTTAACTCAA the binding signal (log2 normalized intensity) was -1.18.
GCAGAAGCAGAGAGAAACTTTGGAAGTAGG was tested, and the binding signal (log2 normalized intensity) was -1.22.
With CCGGAGAGGCTTATTCCGTACAAGGATTCA the binding signal (log2 normalized intensity) was -1.33.
For CAAGCCTGCCGAGGTGTCCTGTAAATAGTG, the binding signal (log2 normalized intensity) was 0.553.
With ACGCTGTTGTCTGTGACTGGGGTCAAACTC the binding signal (log2 normalized intensity) was 4.79.
TTGCAATAAAAGATTGCATCTGTTTTTATT gave a binding signal (log2 normalized intensity) of -1.22.
In the case of CCCTCAGGGATCTTTGCACTTGATGTTCCC, the binding signal (log2 normalized intensity) is reported as 1.69.
With AGCAGGCCTCGGGCCTGCGAGGTTACAGGG the binding signal (log2 normalized intensity) was 0.048.
ATCCGCTAATGACACCAGGGAACACACCAT showed a binding signal (log2 normalized intensity) of -1.17.
With CTAACATTCAGAGGTCAGGGGAGAGAGGCA the binding signal (log2 normalized intensity) was -1.28.
For CCCAAAGGCATGAATAGAATGCAACCAAGT, the binding signal (log2 normalized intensity) was -1.14.
In the case of GAGGTGACCCTTGCACTCATACTTGAAGAC, the binding signal (log2 normalized intensity) is reported as 4.75.
Work on AAGGCCTTAAAGTGTAAATATTTGAGGACA yielded a binding signal (log2 normalized intensity) of 0.314.
Sequence TCAGGTAAAGATATGGAACACTTTCAGAGA has a binding signal (log2 normalized intensity) of -0.477.
Sequence TCCAGGAGGGGAGGAGGGTCAAAACTTCAG has a binding signal (log2 normalized intensity) of -1.31.
Sequence GCAGAAAACGCAATTGCCCTACAGCTCCTG has a binding signal (log2 normalized intensity) of -1.29.
Sequence CTGTCCCTCAGTGTGGGACTTTGGTCTGCT has a binding signal (log2 normalized intensity) of 5.11.
AGCTGTTATCTTGGTGCCTGCAGAGCCTCC was tested, and the binding signal (log2 normalized intensity) was -1.19.
For ATTCCAAGAAGGCAGACTCAAGATAGAGGG, the binding signal (log2 normalized intensity) was -1.22.
With TTGGAGAAAAAAAACCATTGCAAATTGGAT the binding signal (log2 normalized intensity) was -1.2.
ACCAAGTACCGCAAACAAGGTGGCTTGAAA was tested, and the binding signal (log2 normalized intensity) was -1.38.
Work on GGCCAAAGTACGCTCCACCCCTCAGCCTTT yielded a binding signal (log2 normalized intensity) of 3.21.
GCGGCTCCGGGAGCTGGCGGCGCGGCCGGA showed a binding signal (log2 normalized intensity) of -1.26.
TCTCTGAGCAGTGAATGTTGAAGTCCCACG gave a binding signal (log2 normalized intensity) of 0.39.
Sequence AAAGAGAGAGTTAGTTCTGCAAACACCCCT has a binding signal (log2 normalized intensity) of 1.84.
Sequence CAATGTGCTCATCCATAAAATGGGGTAATG has a binding signal (log2 normalized intensity) of 1.03.
CCCAGATGGGCTGGCAGAGGGGATCAAGTG was tested, and the binding signal (log2 normalized intensity) was -1.34.
TAACCCCCTTGTCTTCCTCAAATTACAAAA gave a binding signal (log2 normalized intensity) of 1.89.
With GAGGGCAACCTTTGAACTGGGTCTTAATAA the binding signal (log2 normalized intensity) was 4.2.
With GAAAACCTTGTCTAAGCCCTTATCAAAAAG the binding signal (log2 normalized intensity) was -1.33.
TGACACCTAGCTGAGCAGGGGACTAAGAGC gave a binding signal (log2 normalized intensity) of -1.21.
For TGACTGATTCCTGCTGAGAGAGCAGGTTGA, the binding signal (log2 normalized intensity) was -0.841.
In the case of GAGTTCAAAGGATACAGATAAATAAATCAA, the binding signal (log2 normalized intensity) is reported as -1.37.
For GATCCTCATTTCCCCATTCCTAAGTTCCAA, the binding signal (log2 normalized intensity) was 1.82.
For TGGAGAATGGATCTAAGGACAAAGTCCAAG, the binding signal (log2 normalized intensity) was 6.94.
With TTATCAGCTGCTAAGTCTTTCCACACAGCC the binding signal (log2 normalized intensity) was -1.33.
Work on TGCTTATTTCCCATCAAGGATCAAGGACCT yielded a binding signal (log2 normalized intensity) of 1.04.
GTTGAGGTAGAGGGACACTGATAACATGAG gave a binding signal (log2 normalized intensity) of -1.29.
AAAATCACACTGGGAATTGGGATGGCAGCT showed a binding signal (log2 normalized intensity) of -1.43.
CCAGTTTCTCAACAGACCCCTGAATTGGTC was tested, and the binding signal (log2 normalized intensity) was 2.18.
Work on TCTTTCCACACAGCCTGTCAAAGGGAGAAA yielded a binding signal (log2 normalized intensity) of -1.28.
GAAGGTGCTCAGAAAATTGATTCTAATCTC showed a binding signal (log2 normalized intensity) of -1.23.
ACTGGGGACTAGTAGAGTGGGGAGGTAGGG gave a binding signal (log2 normalized intensity) of -1.14.
For AGGTCACATAGCAGGCATACCAGGCAGAGG, the binding signal (log2 normalized intensity) was -1.36.
AATGCACCCAGAACCCCCAGGTCACCCACA was tested, and the binding signal (log2 normalized intensity) was 4.67.
For CTGGACTTTCCTTTGTTGGGAGACTTTTTA, the binding signal (log2 normalized intensity) was 1.45.
With AAAAGCAGGCAACCAAGGGTACACACCGTT the binding signal (log2 normalized intensity) was -1.24.
CACCTTCTACACAGCACCCCTTGCAAATAA gave a binding signal (log2 normalized intensity) of 2.2.
AATGCCAGGACCCTGTGGGACTGGTTTCAA was tested, and the binding signal (log2 normalized intensity) was -1.35.
GTCTCCAGCCCCCAGAGGTCACACTGATAC gave a binding signal (log2 normalized intensity) of 3.87.
In the case of CCTGTTAAAAACACGAGCTATTGCGAGGTT, the binding signal (log2 normalized intensity) is reported as -1.38.
Work on CTCATTCTTGGAATGCATTGCAAGTCGTAT yielded a binding signal (log2 normalized intensity) of 1.25.
In the case of TGGAATTTGAACCTACACCTATGTGGTCAA, the binding signal (log2 normalized intensity) is reported as 3.09.
In the case of TTTTCTATTTCCACTGAGGTCAAGATAAGA, the binding signal (log2 normalized intensity) is reported as 1.52.
